# Measured values published in publication PMC4336329 (PLoS ONE, 2015).
# The campaign covered roughly 310,000 compounds. About 14,000 (4.5%) showed an effect of 50% or more. The effect is printed as a negative number. This is one part of the list.
# Biological target: human ether-à-go-go-related gene (hERG) potassium channel (human, UniProt Q12809)
# Experiment: primary screen, population patch clamp on CHO cells stably expressing hERG
# 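Further: peak tail current of the secondary pulse compared with the same well before compound.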
# Sequence of human ether-à-go-go-related gene (hERG) potassium channel (Q12809 whole entry, looked up): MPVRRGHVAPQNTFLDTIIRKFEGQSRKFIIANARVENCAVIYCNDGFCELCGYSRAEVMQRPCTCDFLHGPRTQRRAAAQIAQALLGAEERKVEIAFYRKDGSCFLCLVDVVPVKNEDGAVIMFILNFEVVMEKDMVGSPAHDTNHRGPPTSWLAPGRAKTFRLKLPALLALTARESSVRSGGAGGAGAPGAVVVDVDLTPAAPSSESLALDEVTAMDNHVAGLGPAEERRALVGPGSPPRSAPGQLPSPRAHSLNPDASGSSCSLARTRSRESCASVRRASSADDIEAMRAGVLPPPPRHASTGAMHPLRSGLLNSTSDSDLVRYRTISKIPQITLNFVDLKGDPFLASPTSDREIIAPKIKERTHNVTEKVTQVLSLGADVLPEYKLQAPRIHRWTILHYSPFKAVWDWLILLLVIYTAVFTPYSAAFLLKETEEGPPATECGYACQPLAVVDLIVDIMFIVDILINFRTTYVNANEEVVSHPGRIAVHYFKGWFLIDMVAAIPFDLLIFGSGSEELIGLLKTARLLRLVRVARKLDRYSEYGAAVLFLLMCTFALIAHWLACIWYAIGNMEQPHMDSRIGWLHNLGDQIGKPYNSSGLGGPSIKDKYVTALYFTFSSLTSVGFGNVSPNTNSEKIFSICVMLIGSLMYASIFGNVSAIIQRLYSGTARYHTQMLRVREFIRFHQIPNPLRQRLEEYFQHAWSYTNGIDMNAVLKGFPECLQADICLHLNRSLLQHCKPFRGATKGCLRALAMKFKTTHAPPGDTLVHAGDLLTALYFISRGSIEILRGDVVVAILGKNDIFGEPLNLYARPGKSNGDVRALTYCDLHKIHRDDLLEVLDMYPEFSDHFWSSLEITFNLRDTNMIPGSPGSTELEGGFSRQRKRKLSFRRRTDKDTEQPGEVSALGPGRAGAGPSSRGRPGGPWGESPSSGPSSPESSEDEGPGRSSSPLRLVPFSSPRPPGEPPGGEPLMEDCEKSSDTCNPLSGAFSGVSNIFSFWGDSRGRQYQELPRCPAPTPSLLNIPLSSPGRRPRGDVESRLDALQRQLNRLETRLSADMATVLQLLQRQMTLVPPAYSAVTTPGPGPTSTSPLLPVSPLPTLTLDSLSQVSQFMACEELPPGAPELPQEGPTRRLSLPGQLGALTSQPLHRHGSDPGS
row,SMILES,"hERG current change (%, negative = inhibition) at 10uM [%]"
1,O=C(O)c1cc(NC(=O)c2cccc(F)c2)cc(NC(=O)c2cccc(F)c2)c1,15.4
2,CCOC(=O)N1CCN(C(=O)CN(c2cccc(C)c2)S(=O)(=O)c2ccccc2)CC1,-19.6
3,COc1ccc(C(=O)Nc2ccc(Cl)cn2)cc1Cl,1.9
4,CCOC(=O)c1ccc(NS(=O)(=O)c2cccc3nsnc23)cc1,-14.8
5,CC(=O)Nc1cc(NC(C)=O)cc(C(=O)N2CCCC3CCCCC32)c1 (stereo not drawn),5.24
6,Cc1ccc(S(=O)(=O)N2CCCC2C(=O)NCc2ccccc2F)cc1 (stereo not drawn),12.4
7,Cc1c(Cl)cccc1NC(=O)Cn1c(CCC(=O)O)ccc1-c1ccc(Cl)cc1,6.75
8,O=C(COc1ccc2ccccc2c1)N1CCCC1,-13.3
9,N#CCCN(Cc1cccnc1)C(=O)c1sc2cc(F)ccc2c1Cl,-15.7
10,COc1ccc(S(=O)(=O)Nc2ccc3oc(C)c(C(=O)O)c3c2)cc1,21.3
11,O=C(Nc1cccc(-c2nc3ccccc3o2)c1)c1cccnc1,-47.7
12,O=C(c1ccco1)N1CCN(C(=O)c2cc3c(s2)-c2ccccc2OC3)CC1,-63.9
13,O=C(c1cc(-c2cccs2)on1)N1CCN(C(c2ccccc2)c2ccccc2)CC1,3.95
14,CCc1noc(C)c1C(=O)N1CCSC1=Nc1cccc(Cl)c1C,9.77
15,CC(C)(C)c1ccccc1OCC(=O)Nc1ccccc1C(=O)NCc1cccnc1,-3.52
16,CN(C)C=O.Cc1cc(-c2ccco2)c(C#N)c2nc3ccccc3n12,-11.4
17,C=CCNC(=O)c1oc2ccc(S(=O)(=O)N3CCC4(CC3)OCCO4)cc2c1C,0.761
18,O=S(=O)(NCC1CCCO1)c1ccccc1 (stereo not drawn),15.6
19,CCOC(=O)c1ccccc1NC(=O)CSc1ccc(-c2ccccn2)nn1,-23.4
20,O=C(Nc1ccc(S(=O)(=O)Nc2ccccc2)cc1)c1ccc(CN2CCOCC2)cc1,-18.4
21,COCCn1cnc2c(c1=O)c1nc3ccccc3nc1n2/N=C/c1ccco1,-7.29
22,COc1ccc(CNC(=O)CCCNC(=O)c2ccc(Cl)cc2)cc1OC,-1.44
23,O=C(NCc1ccc(F)cc1)c1cc(-c2cccs2)on1,-2.5
24,Cc1ccc(NC(=O)c2oc3ccc(S(=O)(=O)N4CCC5(CC4)OCCO5)cc3c2C)cc1C,0.726
25,Cc1cc(C)cc(-c2nnc(SCC(=O)N3CCN(C(=O)c4ccco4)CC3)o2)c1,-43.3
26,Cc1ccc(C(=O)NNC(=O)c2ccc(NS(=O)(=O)c3cccs3)cc2)s1,16.9
27,COc1ccc(C(CNC(=O)c2ccc(C)c(S(=O)(=O)N3CCCCC3)c2)N(C)C)cc1OC (stereo not drawn),7.1

row,SMILES,"hERG current change (%, negative = inhibition) at 10uM [%]"
1,O=S(=O)(NC1CCCCCCC1)c1ccccc1F,-28.5
2,COc1ccc(NC(=O)Cn2nc([N+](=O)[O-])c(Cl)c2C)cc1OC,-18.9
3,O=C(CSc1nnc(CN2CCCCC2)n1-c1ccccc1)c1ccc2c(c1)OCO2,-25.4
4,Cl.O=C(CN1CCCC1)NCc1ccccc1,15.6
5,COCn1ccnc1C(O)(c1ccc(OC)cc1)c1ccc(OC)cc1,9.69
6,Cc1c(C)n(Cc2ccc(F)cc2)c2ccc(C(=O)NCCN3CCOCC3)cc12,-19.2
7,CC(C)C(C)NC(=O)COc1ccc(-c2ccccc2)cc1 (stereo not drawn),3.45
8,CCc1cccc(NC(=O)CCSCCC(=O)Nc2cccc(CC)c2)c1,-9.75
9,O=C1NC(Cc2ccccc2)c2nc3ccc(Cl)cc3c(=O)n2-c2ccc(Cl)cc21 (stereo not drawn),10.7
10,CCN(c1ccccc1C(=O)O)S(=O)(=O)c1ccc2[nH]c(=O)[nH]c2c1,16.1
11,CCc1cc(-c2n[nH]c(=S)n2CC)cs1,17.7
12,CCc1c(C)sc(NC(=O)c2ccco2)c1C(=O)N1CCOCC1,12.5
13,C=CCN=C1S/C(=C/c2ccc([N+](=O)[O-])cc2)C(=O)N1CC=C,-0.191
14,O=S(=O)(c1cccc(Br)c1)N1CCN(C(=S)NCC2CCCO2)CC1 (stereo not drawn),11.6
15,O=C(Nc1ccccc1F)c1cc(C(=O)Nc2ccccc2F)cc([N+](=O)[O-])c1,9.4
16,COc1nc(NCc2ccc(Cl)cc2)nc(OC)n1,4.9
17,CCOc1ccc(-c2c(C)n([O-])c3c([n+]2=O)CCCCC3)cc1,17.4
18,CCC(C)n1c(SCC(=O)Nc2ccccc2C(F)(F)F)nc2ccsc2c1=O (stereo not drawn),-14
19,CCc1ccccc1NC(=O)c1cc(S(=O)(=O)N2CCc3ccccc32)cn1C,0.0433
20,CCCC(NC(=O)CCc1c(C)c2cc3c4c(oc3c(C)c2oc1=O)CCCC4)C(=O)O (stereo not drawn),10.9
21,CC(=O)c1ccc(-c2ccc([C@H]3[C@@H]4C=CCC[C@@]4(C)C(=O)N3Cc3ccccc3)c(F)c2)cc1,5.22
22,C=CCNC(=O)c1ccccc1NC(=O)c1ccc(Cl)c(S(=O)(=O)Nc2cccc(C)c2C)c1,-15
23,Cc1csc(NC(=O)c2ccc(Cl)nc2)n1,-3.42
24,CCc1nnc(NC(=O)CSc2nnnn2-c2cccc(C(=O)OC)c2)s1,8.39
25,C=CCOc1ccc(C=Nc2ccc(OC)cc2)c(O)c1,24
26,CCCS(=O)(=O)c1c(S(=O)(=O)CCC)c2c(N)cccn2c1C(=O)OC,-20
27,COc1cc(OC)cc(C(=O)OCc2ccc([N+](=O)[O-])cc2)c1,5.31
